# Experimental data: PubChem BioAssay AID686978 (National Center for Advancing Translational Sciences (NCATS), 2013)
# Among all 420,000 compounds or so, about 64,000 (15%) were called active. The shares of active, inactive and inconclusive entries below differ from those in the screen. Calls come from the whole dose curve; as a rule, active = well fitted inhibition curve with a large enough effect; inconclusive = small, poorly fitted or top-dose-only effect; inactive = flat fitted curve, though single readings scatter. Potencies of inconclusive entries are left out as doubtful fits.
# Assay: qHTS for Inhibitors of human tyrosyl-DNA phosphodiesterase 1 (TDP1): qHTS in cells in absence of CPT; note: nearly all actives have a fitted effect of over 55% in size
# Conditions: DT40 Tdp1-/- hTDP1 cells, no CPT, ATP luminescence, 48 h; activity change, negative = growth inhibition: at 46.2 µM (top of the series)
# How it was run: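 Stably hTDP1-transfected Tdp1-null chicken DT40 cells were treated with library compounds minus camptothecin and grown for at least 48 hr at 37 °C, after which cellular ATP was quantified by luminescence.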
# % is set by controls: 0 for no effect and ±100 for the full control effect; potency is the fitted concentration of half-maximal effect; tags give direction and shape of the fitted curve.
SMILES,Potency,"activity change, negative = growth inhibition"
COCCn1c(N)c(S(=O)(=O)c2cccs2)c2nc3ccccc3nc21,inactive,–
CN(C)c1cccc(C(=O)Nc2cc(C(F)(F)F)ccc2-n2cnc3ccccc32)c1,inactive,–
Cc1ccc(CN(N=Nc2nonc2N)c2nonc2N)c(C)c1,"inconclusive [inhibitor, single point]",–
Cc1cccn2c(=O)c3cc(C(N)=S)c(=N)n(CCCN4CCOCC4)c3nc12,"inconclusive [inhibitor, partial curve, poor fit]",–
CC(C)(C)NC(=O)Cn1c(SCC(N)=O)nc2ccccc21,"inconclusive [inhibitor, single point]",–
CCOC(=O)/C=C/C(=O)OCC(=O)Nc1ccc(C)cc1,–,inconclusive: -36.9% [inhibitor]
Cn1c(NCc2ccccc2F)nc2cc(-c3cccc(Cl)c3)sc2c1=O,active: 20.6 µM,–
CCCCN(C)c1c(C)nc2ccc(C(=O)NCCc3c[nH]c4ccccc34)cn12,"inconclusive [inhibitor, single point]",–
O=C(/C=C/c1ccc([N+](=O)[O-])cc1)Nc1cccnc1,"inconclusive [inhibitor, single point]",–
COc1cccc(NC(=S)NC2CC(C)(C)NC(C)(C)C2)c1,inactive,–
S=C(NCCc1ccccc1)Nc1ccccc1N1CCOCC1,"inconclusive [inhibitor, single point]",–
COc1ccc2c(c1)OC(C)(C)C(c1ccccc1)C2c1ccc(OCCN2CCCC2)cc1 (centres undefined),active: 26.6 µM,–
COc1cccc(-n2ccn(CC(=O)Nc3ccccc3F)c(=O)c2=O)c1,inactive,–
O=S(=O)(c1ccc(Cl)cc1)N1c2ccccc2Oc2nc3ccccc3nc21,active: 16.4 µM,–
COc1cccc(C(O)c2nc(-c3ccc(N(C)C)cc3)cs2)c1 (centres undefined),active: 16.4 µM,–
COc1ccccc1N1CCN(C(C)C(=O)N2CC(C)OC(C)C2)CC1 (centres undefined),inactive,–
COc1ccc(C2=C(C)C(N3CCC(C(=O)NCc4ccco4)CC3)=NS2(=O)=O)cc1,"inconclusive [inhibitor, single point]",–
Cc1cc(C(=O)N2CCCC(C(=O)c3ccc(Cl)cc3C)C2)no1 (centres undefined),active: 23.1 µM,–
S=C1SCN(Cc2cccnc2)CN1Cc1ccccc1,active: 4.61 µM,–
Cc1ccc(-c2nc(C#N)c(NCc3cccc4c3OCO4)o2)cc1,inactive,–
COc1ccc(N2CCN(C(=O)CNC(=O)Cn3c(C)cc4ccccc4c3=O)CC2)cc1,"inconclusive [inhibitor, single point]",–
CCOc1ccc(C(=O)NCC(c2ccco2)N2CCc3ccccc3C2)cc1 (centres undefined),"inconclusive [inhibitor, single point]",–
O=C(Nc1ccc(Cl)c([N+](=O)[O-])c1)c1ccc(NCCCN2CCOCC2)c([N+](=O)[O-])c1,active: 2.31 µM,–
CC(O)(c1ccc(F)c(F)c1)c1nc(-c2cccc(C#N)c2)cs1 (centres undefined),"inconclusive [inhibitor, single point]",–
COc1ccc(NC(=O)c2cc3c(CO)cnc(C)c3oc2=Nc2cccc(F)c2)c(OC)c1,–,inconclusive: -24.7% [inhibitor]

SMILES,Potency,"activity change, negative = growth inhibition"
C/C(=N\OCC(=O)N/N=C/c1ccccc1O)c1cccs1,active: 4.61 µM,–
Cc1onc(-c2ccccc2)c1C(=O)Nc1ccccc1N1CCOCC1,"inconclusive [inhibitor, partial curve]",–
CCCc1nnc(NC(=O)CCC(=O)NC2CCCCCC2)s1,inactive,–
CN(C(=O)CSC1=NC2C(N=N1)c1cc(Br)ccc1N2C)C1CCCCC1 (centres undefined),"inconclusive [inhibitor, single point]",–
CCCOc1ccc(-c2c(C(=O)N/N=C/C3CCCCC3)nnn2-c2nonc2N)cc1,active: 11.6 µM,–
O=C(/C=C/c1ccc([N+](=O)[O-])cc1)OCC(=O)N1CCOCC1,inactive,–
C=CCNC(=O)c1ccccc1NC(=O)c1cccc2ccccc12,"inconclusive [inhibitor, partial curve]",–
O=C1CNC(=O)/C1=C\N1CCN(C(c2ccccc2)c2ccccc2)CC1,"inconclusive [inhibitor, single point]",–
CC(C)=NN1C(c2nonc2N)=NOC1(C)C,"inconclusive [inhibitor, partial curve]",–
O=C1NC(c2cccnc2)C(C(=O)c2cccs2)C(O)(C(F)(F)F)N1 (centres undefined),inactive,–
COc1ccc(CCNC(=S)Nc2ccccc2C)cc1,"inconclusive [inhibitor, single point]",–
CCN(CC)c1ccc(/C=N/N2CCN(Cc3ccccc3)CC2)c(O)c1,"inconclusive [inhibitor, single point]",–
Cc1ccc(CNC(=O)CSCc2nc(-c3ccc(Cl)cc3)oc2C)cc1,"inconclusive [inhibitor, single point]",–
O=C(CN1CCN(Cc2cccc(F)c2)CC1)NCc1ccccc1,"inconclusive [inhibitor, single point]",–
Cc1cccc(NC(=O)CCCCC(=O)Nc2cccc(C)c2)c1,inactive,–
COc1cccc(-c2ccnc3c(-c4ccccc4)c(C)nn23)c1,"inconclusive [inhibitor, single point]",–
CCC(C)NC(=O)C1c2ccccc2C(=O)N(c2ccc(OC)cc2)C1c1ccc(OC)cc1 (centres undefined),active: 20.6 µM,–
C=CCOc1ccc(/C=C/C(=O)OCC(=O)NCc2cccs2)cc1,"inconclusive [inhibitor, single point]",–
CC(=O)Oc1c(Cl)c(N2CCOCC2)c(OC(C)=O)c2ccccc12,active: 16.4 µM,–
N#CC(C(=O)NC1CC1)c1nc2ccccc2nc1N1CCN(C/C=C/c2ccccc2)CC1 (centres undefined),"inconclusive [inhibitor, single point]",–
COC(CNC(=O)C(=O)NCC1OCCN1S(=O)(=O)c1ccccc1)OC (centres undefined),inactive,–
Cc1cccn2c(=O)c(/C=C(\C#N)S(=O)(=O)c3ccccc3)c(N3CCN(c4ccccc4)CC3)nc12,"inconclusive [inhibitor, single point]",–
CC(C)CCNC(=O)c1cnn2c(C(F)(F)F)cc(-c3ccco3)nc12,active: 31.6 µM,–
O=C(N/N=C1/CCS(=O)(=O)c2ccc(F)cc21)c1cccnc1,inactive,–
CCC1Sc2ccc(S(=O)(=O)Nc3ccc(OC)cc3)cc2NC1=O (centres undefined),"inconclusive [inhibitor, single point]",–

SMILES,Potency,"activity change, negative = growth inhibition"
O=C(CN(Cc1ccccc1)C(=O)c1csnn1)NCc1ccc2c(c1)OCO2,"inconclusive [inhibitor, single point]",–
CCC(CC)c1nnc(NC(=O)CCS(=O)(=O)Cc2ccccc2)s1,active: 14.6 µM,–
COC(=O)N(C)c1nc2ccccc2s1,inactive,–
COc1ccc(-c2cc(C(=O)NCCc3ccc(Cl)cc3)[nH]n2)cc1,inactive,–
CCn1c(CNc2ccc(F)cc2)nnc1SCCN1CCCCC1,inactive,–
Cc1ccc2nc(-c3ccc(NC(=O)COC(=O)c4ccc(Br)o4)cc3)sc2c1,"inconclusive [inhibitor, single point]",–
Cc1cc(C)c(S(=O)(=O)Nc2ccccc2)c(C)c1,"inconclusive [inhibitor, single point]",–
CCc1sc(C(=O)NCCc2ccc(S(N)(=O)=O)cc2)cc1Br,active: 16.4 µM,–
Cc1cccc(N2CCN(C(=O)COCc3cc(-c4ccc5c(c4)OCO5)on3)CC2)c1C,inactive,–
Cc1onc(-c2ccccc2)c1C(=O)Nc1ccc(S(=O)(=O)N2CCCC2)cc1,inactive,–
Cc1ccc(C)c2c3c([nH]c12)-c1nonc1CC3,"inconclusive [inhibitor, single point]",–
COc1cc(CC(NC(C)=O)C(=O)NC2CCN(c3nc(OC)nc(OC)n3)CC2)cc(OC)c1 (centres undefined),inactive,–
CCN(CC)S(=O)(=O)c1cccc(NC(=O)COC(=O)c2cc(C)oc2C)c1,"inconclusive [inhibitor, single point]",–
CCCOc1ccc(Cn2cnc3ccccc32)cc1,active: 13 µM,–
Cc1cc(C(=O)COC(=O)c2ccc(F)cc2F)c(C)n1C1CC1,inactive,–
CC1=NN(/C(=N\c2nnc(C)s2)Nc2ccc(C)cc2)[C@H](c2ccc(C)cc2)S1,"inconclusive [inhibitor, single point]",–
CS(=O)(=O)Nc1ccc(-c2n[nH]c(=S)n2-c2ccccc2)cc1,"inconclusive [inhibitor, full curve]",–
CCCSC1=C(C#N)C(c2cccs2)C(C(=O)Nc2ccccc2)=C(C)N1 (centres undefined),"inconclusive [inhibitor, single point]",–
CN=c1scc(C)n1/N=C/c1ccc(O)cc1O,"inconclusive [inhibitor, partial curve, poor fit]",–
Cc1cc(C(=O)CSc2ncn[nH]2)c(C)n1-c1cccc(S(=O)(=O)N2CCOCC2)c1,active: 18.4 µM,–
Cc1ccc(-n2nc(C)c3c2OC(N)=C(C#N)C3c2ccco2)cc1 (centres undefined),"inconclusive [inhibitor, single point]",–
COC(=O)c1ccccc1NC(=O)COCc1cc(-c2cccs2)on1,"inconclusive [inhibitor, partial curve]",–
O=C(Oc1cccc(/C=N/Nc2nc(N3CCOCC3)nc(N3CCOCC3)n2)c1)c1ccco1,"inconclusive [inhibitor, single point]",–
Cc1nc(NC(=O)/C=C/c2ccccc2)sc1C(=O)Nc1ccc(Cl)cc1,"inconclusive [inhibitor, single point]",–
